The source of these data is article PMC9911399, “Two distinct binding modes provide the RNA-binding protein RbFox with extraordinary sequence specificity”.

Numbering of substitutions follows the chain as printed; changes in the protein carry UniProt numbers. The list shows a part of the results.

T1: RBFOX1 RRM (Homo sapiens, UniProt Q9NWB1 109-208)
T1 sequence: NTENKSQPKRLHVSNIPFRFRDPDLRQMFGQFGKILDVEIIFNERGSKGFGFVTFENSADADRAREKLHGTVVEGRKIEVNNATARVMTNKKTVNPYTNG

B1: UUCCAGU (DNA:RNA)
RNA: GGGAGACCGGAAUUCAGAUUGUCCUUCCAGUUUAAAUCCCGUCGUAGCCACCA
DNA 1: CAATCTGAATTCCGGTCTCCC
DNA 2: TGGTGGCTACGACGGGATT
B2: CGAACAU (DNA:RNA)
RNA: B1 RNA with U25C, U26G, C27A, C28A, A29C, G30A
DNA 1: CAATCTGAATTCCGGTCTCCC
DNA 2: TGGTGGCTACGACGGGATT
B3: AAUCAUU (DNA:RNA)
RNA: B1 RNA with U25A, U26A, C27U, G30U
DNA 1: CAATCTGAATTCCGGTCTCCC
DNA 2: TGGTGGCTACGACGGGATT
B4: AUGUUAC (DNA:RNA)
RNA: B1 RNA with U25A, C27G, C28U, A29U, G30A, U31C
DNA 1: CAATCTGAATTCCGGTCTCCC
DNA 2: TGGTGGCTACGACGGGATT
B5: ACUCUCC (DNA:RNA)
RNA: B1 RNA with U25A, U26C, C27U, A29U, G30C, U31C
DNA 1: CAATCTGAATTCCGGTCTCCC
DNA 2: TGGTGGCTACGACGGGATT
B6: UAUGGCG (DNA:RNA)
RNA: B1 RNA with U26A, C27U, C28G, A29G, G30C, U31G
DNA 1: CAATCTGAATTCCGGTCTCCC
DNA 2: TGGTGGCTACGACGGGATT
B7: AAACGUG (DNA:RNA)
RNA: B1 RNA with U25A, U26A, C27A, A29G, G30U, U31G
DNA 1: CAATCTGAATTCCGGTCTCCC
DNA 2: TGGTGGCTACGACGGGATT
B8: UCCUGUU (DNA:RNA)
RNA: B1 RNA with U26C, C28U, A29G, G30U
DNA 1: CAATCTGAATTCCGGTCTCCC
DNA 2: TGGTGGCTACGACGGGATT
B9: AAACGGG (DNA:RNA)
RNA: B1 RNA with U25A, U26A, C27A, A29G, U31G
DNA 1: CAATCTGAATTCCGGTCTCCC
DNA 2: TGGTGGCTACGACGGGATT
B10: UUCGGGG (DNA:RNA)
RNA: B1 RNA with C28G, A29G, U31G
DNA 1: CAATCTGAATTCCGGTCTCCC
DNA 2: TGGTGGCTACGACGGGATT
B11: UUAAAAU (DNA:RNA)
RNA: B1 RNA with C27A, C28A, G30A
DNA 1: CAATCTGAATTCCGGTCTCCC
DNA 2: TGGTGGCTACGACGGGATT
B12: AAGGUGC (DNA:RNA)
RNA: B1 RNA with U25A, U26A, C27G, C28G, A29U, U31C
DNA 1: CAATCTGAATTCCGGTCTCCC
DNA 2: TGGTGGCTACGACGGGATT
B13: AAAAAGU (DNA:RNA)
RNA: B1 RNA with U25A, U26A, C27A, C28A
DNA 1: CAATCTGAATTCCGGTCTCCC
DNA 2: TGGTGGCTACGACGGGATT
B14: AAACAGC (DNA:RNA)
RNA: B1 RNA with U25A, U26A, C27A, U31C
DNA 1: CAATCTGAATTCCGGTCTCCC
DNA 2: TGGTGGCTACGACGGGATT
B15: CUACUAC (DNA:RNA)
RNA: B1 RNA with U25C, C27A, A29U, G30A, U31C
DNA 1: CAATCTGAATTCCGGTCTCCC
DNA 2: TGGTGGCTACGACGGGATT
B16: CGGUGGA (DNA:RNA)
RNA: B1 RNA with U25C, U26G, C27G, C28U, A29G, U31A
DNA 1: CAATCTGAATTCCGGTCTCCC
DNA 2: TGGTGGCTACGACGGGATT
B17: AUACCUC (DNA:RNA)
RNA: B1 RNA with U25A, C27A, A29C, G30U, U31C
DNA 1: CAATCTGAATTCCGGTCTCCC
DNA 2: TGGTGGCTACGACGGGATT
B18: GAGAGAG (DNA:RNA)
RNA: GGGAGACCGGAAUUCAGAUUGUCCGAGAGAGUUAAAUCCCGUCGUAGCCACCA
DNA 1: CAATCTGAATTCCGGTCTCCC
DNA 2: TGGTGGCTACGACGGGATT
B19: UCUUUCU (DNA:RNA)
RNA: B1 RNA with U26C, C27U, C28U, A29U, G30C
DNA 1: CAATCTGAATTCCGGTCTCCC
DNA 2: TGGTGGCTACGACGGGATT
B20: AGGCUCA (DNA:RNA)
RNA: B18 RNA with G25A, A26G, A28C, G29U, A30C, G31A
DNA 1: CAATCTGAATTCCGGTCTCCC
DNA 2: TGGTGGCTACGACGGGATT
B21: AGAUCCU (DNA:RNA)
RNA: B1 RNA with U25A, U26G, C27A, C28U, A29C, G30C
DNA 1: CAATCTGAATTCCGGTCTCCC
DNA 2: TGGTGGCTACGACGGGATT
B22: UGGUUCA (DNA:RNA)
RNA: B18 RNA with G25U, A26G, A28U, G29U, A30C, G31A
DNA 1: CAATCTGAATTCCGGTCTCCC
DNA 2: TGGTGGCTACGACGGGATT
B23: CGACAGC (DNA:RNA)
RNA: B1 RNA with U25C, U26G, C27A, U31C
DNA 1: CAATCTGAATTCCGGTCTCCC
DNA 2: TGGTGGCTACGACGGGATT
B24: GGCGCUG (DNA:RNA)
RNA: B18 RNA with A26G, G27C, A28G, G29C, A30U
DNA 1: CAATCTGAATTCCGGTCTCCC
DNA 2: TGGTGGCTACGACGGGATT
B25: CAGAUAA (DNA:RNA)
RNA: B18 RNA with G25C, G29U, G31A
DNA 1: CAATCTGAATTCCGGTCTCCC
DNA 2: TGGTGGCTACGACGGGATT
B26: CGAUGAG (DNA:RNA)
RNA: B18 RNA with G25C, A26G, G27A, A28U
DNA 1: CAATCTGAATTCCGGTCTCCC
DNA 2: TGGTGGCTACGACGGGATT
B27: CCUCUAC (DNA:RNA)
RNA: B18 RNA with G25C, A26C, G27U, A28C, G29U, G31C
DNA 1: CAATCTGAATTCCGGTCTCCC
DNA 2: TGGTGGCTACGACGGGATT
B28: CAGGCAC (DNA:RNA)
RNA: B18 RNA with G25C, A28G, G29C, G31C
DNA 1: CAATCTGAATTCCGGTCTCCC
DNA 2: TGGTGGCTACGACGGGATT
B29: ACCUUCG (DNA:RNA)
RNA: B18 RNA with G25A, A26C, G27C, A28U, G29U, A30C
DNA 1: CAATCTGAATTCCGGTCTCCC
DNA 2: TGGTGGCTACGACGGGATT
B30: AUCACUG (DNA:RNA)
RNA: B18 RNA with G25A, A26U, G27C, G29C, A30U
DNA 1: CAATCTGAATTCCGGTCTCCC
DNA 2: TGGTGGCTACGACGGGATT
B31: UUUAUUG (DNA:RNA)
RNA: B18 RNA with G25U, A26U, G27U, G29U, A30U
DNA 1: CAATCTGAATTCCGGTCTCCC
DNA 2: TGGTGGCTACGACGGGATT

The target of this test is T1, RBFOX1 RRM. Briefly: EMSA; HiTS-Eq, 1 nM pool, 10 min; buffer printed only for the single-RNA assays: 10 mM Tris pH 7.5, 150 mM NaCl, 3.4 mM EDTA, 0.001% NP-40, 30 C. As to conditions: tags: His6 N-terminal (pET28a); label: 5' 32P. The method, boiled down: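 Purified wild-type or mutant RbFox RRM at increasing concentrations was equilibrated with 1 nM of 5′-radiolabelled RNA carrying 7 randomized nucleotides for 10 min in 50 µL. Unbound RNA was separated by 8% native PAGE and sequenced. Relative association constants came from read-count changes of each RNA species compared with the control reaction, normalised to the cognate motif.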
B1: the binding signal is 0.0069 KA relative to UGCAUGU.

As to B2, the binding signal was 0.0043 KA relative to UGCAUGU.

In the case of B3, the binding signal is 0.00261 KA relative to UGCAUGU.

As for B4, the binding signal is 0.00796 KA relative to UGCAUGU.

B5: the binding signal was 0.00262 KA relative to UGCAUGU.

For the molecule B6, the binding signal is 0.0151 KA relative to UGCAUGU.

For B7, the binding signal is 0.00619 KA relative to UGCAUGU.

For the molecule B8, the binding signal was 0.0116 KA relative to UGCAUGU.

Regarding B9, the binding signal is 0.00602 KA relative to UGCAUGU.

In the case of B10, the binding signal was 0.00429 KA relative to UGCAUGU.

As to B11, the binding signal was 0.00292 KA relative to UGCAUGU.

Take B12: the binding signal is 0.0145 KA relative to UGCAUGU.

As for B13, the binding signal was 0.000744 KA relative to UGCAUGU.

Turning to B14, the binding signal is 0.00137 KA relative to UGCAUGU.

Consider B15, for which the binding signal was 0.00199 KA relative to UGCAUGU.

In the case of B16, the binding signal is 0.00825 KA relative to UGCAUGU.

In the case of B17, the binding signal was 0.000578 KA relative to UGCAUGU.

In the case of B18, the binding signal was 0.0147 KA relative to UGCAUGU.

For the molecule B19, the binding signal was 0.0113 KA relative to UGCAUGU.

As for B20, the binding signal was 0.0101 KA relative to UGCAUGU.

Take B21: the binding signal was 0.00532 KA relative to UGCAUGU.

As for B22, the binding signal was 0.0134 KA relative to UGCAUGU.

On to B23, for which the binding signal was 0.0101 KA relative to UGCAUGU.

On to B24, for which the binding signal was 0.0174 KA relative to UGCAUGU.

As to B25, the binding signal is 0.000443 KA relative to UGCAUGU.

Take B26: the binding signal was 0.0186 KA relative to UGCAUGU.

Regarding B27, the binding signal is 0.00294 KA relative to UGCAUGU.

B28: the binding signal is 0.0109 KA relative to UGCAUGU.

In the case of B29, the binding signal is 0.00839 KA relative to UGCAUGU.

Regarding B30, the binding signal was 0.00284 KA relative to UGCAUGU.

As to B31, the binding signal was 0.0179 KA relative to UGCAUGU.
